According to patent US8895568B2, “Compositions comprising substituted pteridines as agrochemicals” (Dow AgroSciences LLC, priority 2009, dated 2014):
The name of at least one read-out is uncertain.

Legend:
[1] = system: Leptosphaeria nodorum; assay: Glume Blotch of Wheat (LEPTNO), foliar spray, percent disease control; format: in vivo; conditions: in vivo
Procedure: The activity of the compounds as effective fungicides was determined by applying the compounds to plants and observing control of fungal disease. The compounds were formulated at 200 ppm in 10 vol. % acetone plus 90 vol. % Triton X water (deionized water 99.99 wt %+0.01 wt % Triton X100), giving a “formulated test compound.” In a few cases, compounds were formulated at 75 or 8.3 ppm rather than 200 ppm in 10 vol. % acetone plus 90 vol. % Triton X water (deionized water 99.99 wt. %+0.01 wt. % Triton X100), giving a “formulated test compound.” Formulated test compounds were applied to plants using a turn table sprayer fitted with two opposing air atomization nozzles which delivered approximately 1500 L/ha of spray volume. All plants were inoculated with spores of the fungus the day after treatment, then incubated in an environment conducive to disease development. Disease severity was evaluated 4 to 15 days later, depending on the disease and the speed of disease development. The following experiments were performed in the laboratory to determine the fungicidal efficacy of the compounds of the invention. […] Each pot contained 3-20 seedlings. These plants were sprayed until wet with the formulated test compound. On the following day, the leaves were inoculated with an aqueous spore suspension of Leptosphaeria nodorum and the plants were kept in high humidity (one day in a dark dew chamber followed by four days in a lighted dew chamber) to permit spores to germinate and infect the leaf. The plants were then transferred to a greenhouse until disease developed on untreated control plants. […] The effectiveness of the test compounds at controlling disease when sprayed on leaves was determined by assessing the severity of disease on treated plants, then converting the severity to percent control based on the level of disease on untreated, inoculated plants. Data are the level (in percent) at which the given disease was controlled when the given compound was applied to the foliage of the plants at 200 ppm. In a few cases (noted in the table) the compound was applied to the plants at 75 ppm or 8.3 ppm.

[2] = system: Puccinia recondita tritici; assay: Leaf Rust of Wheat (PUCCRT), foliar spray, percent disease control; format: in vivo; conditions: in vivo
Procedure: The activity of the compounds as effective fungicides was determined by applying the compounds to plants and observing control of fungal disease. The compounds were formulated at 200 ppm in 10 vol. % acetone plus 90 vol. % Triton X water (deionized water 99.99 wt %+0.01 wt % Triton X100), giving a “formulated test compound.” In a few cases, compounds were formulated at 75 or 8.3 ppm rather than 200 ppm in 10 vol. % acetone plus 90 vol. % Triton X water (deionized water 99.99 wt. %+0.01 wt. % Triton X100), giving a “formulated test compound.” Formulated test compounds were applied to plants using a turn table sprayer fitted with two opposing air atomization nozzles which delivered approximately 1500 L/ha of spray volume. All plants were inoculated with spores of the fungus the day after treatment, then incubated in an environment conducive to disease development. Disease severity was evaluated 4 to 15 days later, depending on the disease and the speed of disease development. The following experiments were performed in the laboratory to determine the fungicidal efficacy of the compounds of the invention. […] Each pot contained 3-8 seedlings. These plants were sprayed until wet with the formulated test compounds. On the following day, the leaves were inoculated with an aqueous spore suspension of Puccinia recondita tritici and the plants were kept in high humidity overnight to permit spores to germinate and infect the leaf. The plants were then transferred to a greenhouse until disease developed on untreated control plants. […] The effectiveness of the test compounds at controlling disease when sprayed on leaves was determined by assessing the severity of disease on treated plants, then converting the severity to percent control based on the level of disease on untreated, inoculated plants. Data are the level (in percent) at which the given disease was controlled when the given compound was applied to the foliage of the plants at 200 ppm. In a few cases (noted in the table) the compound was applied to the plants at 75 ppm or 8.3 ppm.

Row | SMILES | LEPTNO percent control [1] | PUCCRT percent control [2]
1 | Ic1ccnc(Oc2cccc(CCNc3ncnc4nccnc34)c2)c1 [Compound 74] | ** (** = 50-79 percent control) | *** (*** = 80-100 percent control)
2 | FC(F)(F)c1ccnc(Oc2ccc(CCNc3ncnc4ncc(Cl)nc34)cc2)n1 [Compound 75] | ** (** = 50-79 percent control) | *** (*** = 80-100 percent control)
3 | Cc1cnc2ncnc(NCCc3ccc(Oc4cc(C(F)(F)F)ccn4)cc3)c2n1 [Compound 76] | ** (** = 50-79 percent control) | *** (*** = 80-100 percent control)
4 | FC(F)(F)c1cnccc1Oc1cccc(CCNc2ncnc3nccnc23)c1 [Compound 77] | *** (*** = 80-100 percent control) | *** (*** = 80-100 percent control)
5 | CC(Sc1ncnc2nccnc12)c1ccc(C#N)cc1 (stereo not shown) [Compound 78] | ** (** = 50-79 percent control) | ** (** = 50-79 percent control)
6 | CC(Sc1ncnc2nccnc12)c1cccc(C(F)(F)F)c1 (stereo not shown) [Compound 79] | * (* = 0-49 percent control) | ** (** = 50-79 percent control)
7 | Oc1ccc(OCCNc2ncnc3nccnc23)cc1 [Compound 80] | * (* = 0-49 percent control) | * (* = 0-49 percent control)
8 | Oc1cccc(OCCNc2ncnc3nccnc23)c1 [Compound 81] | * (* = 0-49 percent control) | * (* = 0-49 percent control)
9 | CC(Nc1ncnc2nccnc12)c1ccc(Oc2cc(C(F)(F)F)ccn2)cc1 (stereo not shown) [Compound 82] | ** (** = 50-79 percent control) | *** (*** = 80-100 percent control)
10 | FC(F)(F)c1ccnc(Oc2ccc(OCCNc3ncnc4nccnc34)cc2)c1 [Compound 83] | *** (*** = 80-100 percent control) | *** (*** = 80-100 percent control)
11 | FC(F)(F)c1ccc(Oc2ccc(OCCNc3ncnc4nccnc34)cc2)nc1 [Compound 84] | *** (*** = 80-100 percent control) | *** (*** = 80-100 percent control)
12 | N#Cc1ccnc(Oc2ccc(OCCNc3ncnc4nccnc34)cc2)c1 [Compound 85] | * (* = 0-49 percent control) | *** (*** = 80-100 percent control)
13 | FC(F)(F)c1ccnc(Oc2cccc(OCCNc3ncnc4nccnc34)c2)c1 [Compound 86] | * (* = 0-49 percent control) | *** (*** = 80-100 percent control)
14 | FC(F)(F)c1ccc(Oc2cccc(OCCNc3ncnc4nccnc34)c2)nc1 [Compound 87] | ** (** = 50-79 percent control) | *** (*** = 80-100 percent control)
15 | N#Cc1ccnc(Oc2cccc(OCCNc3ncnc4nccnc34)c2)c1 [Compound 88] | ** (** = 50-79 percent control) | *** (*** = 80-100 percent control)
16 | Fc1nc(C(F)(F)F)c(F)c(Oc2ccc(CCNc3ncnc4nccnc34)cc2)c1F [Compound 89] | ** (** = 50-79 percent control) | *** (*** = 80-100 percent control)
17 | FC(F)(F)c1cc(Cl)nc(Oc2ccc(CCNc3ncnc4nccnc34)cc2)c1 [Compound 90, {2-[4-(6-chloro-4-trifluoromethylpyridin-2-yloxy)-phenyl]-ethyl}-pteridin-4-yl-amine] | *** (*** = 80-100 percent control) | *** (*** = 80-100 percent control)
18 | COCCOc1cc(C(F)(F)F)cc(Oc2ccc(CCNc3ncnc4nccnc34)cc2)n1 [Compound 91, (2-{4-[6-(2-Methoxyethoxy)-4-trifluoromethyl-pyridin-2-yloxy]-phenyl}-ethyl)-pteridin-4-yl-amine] | ** (** = 50-79 percent control) | *** (*** = 80-100 percent control)

Row | SMILES | LEPTNO percent control [1] | PUCCRT percent control [2]
19 | FC(F)(F)c1nc(Oc2ccc(CCNc3ncnc4nccnc34)cc2)ccc1Cl [Compound 92] | ** (** = 50-79 percent control) | *** (*** = 80-100 percent control)
20 | Fc1cc(CCNc2ncnc3nccnc23)ccc1Oc1cc(C(F)(F)F)ccn1 [Compound 93] | *** (*** = 80-100 percent control) | *** (*** = 80-100 percent control)
21 | Fc1nc(F)c(F)c(Oc2ccc(CCNc3ncnc4nccnc34)cc2)c1F [Compound 94] | ** (** = 50-79 percent control) | *** (*** = 80-100 percent control)
22 | COc1ccnc(Oc2ccc(CCNc3ncnc4nccnc34)cc2)c1 [Compound 95] | *** (*** = 80-100 percent control) | *** (*** = 80-100 percent control)
23 | FC(F)(F)COc1ccnc(Oc2ccc(CCNc3ncnc4nccnc34)cc2)c1 [Compound 96, Pteridin-4-yl-(2-{4-[4-(2,2,2-trifluoroethoxy)-pyridin-2-yloxy]-phenyl}-ethyl)-amine] | *** (*** = 80-100 percent control) | *** (*** = 80-100 percent control)
24 | COc1cc(CCNc2ncnc3nccnc23)ccc1Oc1nccc(C(F)(F)F)n1 [Compound 97] | ** (** = 50-79 percent control) | *** (*** = 80-100 percent control)
25 | O=Cc1cc(C(F)(F)F)ccc1Oc1ccc(CCNc2ncnc3nccnc23)cc1 [Compound 100] | ** (** = 50-79 percent control) | *** (*** = 80-100 percent control)
26 | FC(F)c1ccnc(Oc2ccc(CCNc3ncnc4nccnc34)cc2)c1 [Compound 101] | *** (*** = 80-100 percent control) | *** (*** = 80-100 percent control)
27 | O=Cc1cc(Cl)cnc1Oc1ccc(CCNc2ncnc3nccnc23)cc1 [Compound 102] | * (* = 0-49 percent control) | *** (*** = 80-100 percent control)
28 | Fc1cc(Oc2cc(C(F)(F)F)ccn2)ccc1CCNc1ncnc2nccnc12 [Compound 103] | *** (*** = 80-100 percent control) | *** (*** = 80-100 percent control)
29 | N#Cc1ccc(Oc2ccc(CCNc3ncnc4nccnc34)c(F)c2)nc1 [Compound 104] | *** (*** = 80-100 percent control) | *** (*** = 80-100 percent control)
30 | Fc1cnc(Oc2ccc(CCNc3ncnc4nccnc34)cc2)c(F)c1C(F)(F)F [Compound 106] | ** (** = 50-79 percent control) | *** (*** = 80-100 percent control)
31 | Fc1cnc(Oc2ccc(CCNc3ncnc4nccnc34)cc2)c(F)c1 [Compound 107] | ** (** = 50-79 percent control) | *** (*** = 80-100 percent control)
32 | Fc1cc(Oc2ccc(CCNc3ncnc4nccnc34)cc2)c(F)cn1 [Compound 108] | ** (** = 50-79 percent control) | *** (*** = 80-100 percent control)
33 | Cc1cc(CCNc2ncnc3nccnc23)ccc1Oc1cc(C(F)(F)F)ccn1 [Compound 109] | ** (** = 50-79 percent control) | *** (*** = 80-100 percent control)
34 | Brc1ccc(Oc2ccc(CCNc3ncnc4nccnc34)cc2)cn1 [Compound 110] | *** (*** = 80-100 percent control) | *** (*** = 80-100 percent control)
35 | FC(F)(F)c1ccncc1Oc1ccc(CCNc2ncnc3nccnc23)cc1 [Compound 111] | *** (*** = 80-100 percent control) | *** (*** = 80-100 percent control)
